Results on one compound are retold here after patent publication US9788539B2, “Platelet protection solution having beta-galactosidase and sialidase inhibitors” (Velico Medical, Inc., priority 2011, dated 2017).

The subject of this test is mouse platelets. The settings on record: in vivo. On the procedure: Incubation of mouse platelets with increasing concentrations of the broad spectrum A. ureafaciens α2-3,6,8-sialidase increased surface β-galactose exposure, but not β-GlcNAc, as detected by lectin binding assays in the flow cytometer (FIG. 16). FIG. 17 presents progressive loss of surface of surface GPIbα and GPV in conjunction with decrease in sialic acid content (p<0.05). GPIbα receptor expression was followed with multiple anti-GPIbα antibodies to exclude the possibility that desialylation altered antibody binding to GPIbα. […] FIG. 20 confirms the flow cytometry data shown in FIG. 19 by using immunoblot analysis of total platelet lysates, platelet supernatants, and corresponding platelet pellets with or with addition of neuraminidase and DANA.

Regarding `CC(=O)NC1C(O)C=C(C(=O)O)OC1C(O)C(O)CO` (stereo not shown) [DANA], the “platelet survival of room temperature stored mouse platelets” value is reported as “preserved”.
